Measurements published in the GPR68 mutational scans of Howard et al. (2025).

B1: GPR68, Q15743 (parent)
chain: MGNITADNSSMSCTIDHTIHQTLAPVVYVTVLVVGFPANCLSLYFGYLQIKARNELGVYLCNLTVADLFYICSLPFWLQYVLQHDNWSHGDLSCQVCGILLYENIYISVGFLCCISVDRYLAVAHPFRFHQFRTLKAAVGVSVVIWAKELLTSIYFLMHEEVIEDENQHRVCFEHYPIQAWQRAINYYRFLVGFLFPICLLLASYQGILRAVRRSHGTQKSRKDQIQRLVLSTVVIFLACFLPYHVLLLVRSVWEASCDFAKGVFNAYHFSLLLTSFNCVADPVLYCFVSETTHRDLARLRGACLAFLTCSRTGRAREAYPLGAPEASGKSGAQGEEPELLTKLHPAFQTPNSPGSGGFPTGRLA

How the values were obtained:
[1] = variants of: B1; test: cAMP reporter score (Enrich2 score, wild type = 0); higher = more signal; HEK293T, FACS bins
[2] = variants of: B1; test: surface expression score (Enrich2 score, wild type = 0); higher = more signal; HEK293T, FACS bins

Row | Variant | cAMP reporter score ([1]; pH 5.5) | cAMP reporter score ([1]; pH 6, modulator: ogerin) | cAMP reporter score ([1]; pH 6.5, modulator: ogerin) | surface expression score [2] | cAMP reporter score ([1]; pH 6)
1 | Y320_P321insG | -0.408 | -0.273 | 0.305 | -1.51 | –
2 | Y320_P321insGS | 1.18 | 0.839 | 0.994 | 0.552 | 0.03
3 | Y320_P321insGSG | -0.403 | 0.392 | 0.402 | 0.033 | –
4 | P321A | -0.665 | 0.693 | -0.102 | 1.03 | –
5 | P321C | 0.283 | 0.384 | 0.437 | -0.064 | 0.228
6 | P321D | -0.094 | -0.048 | 0.068 | 0.462 | -0.38
7 | P321E | 0.911 | 1.39 | 1.15 | 1.16 | 2.92
8 | P321F | 0.75 | 0.684 | 0.397 | -0.145 | –
9 | P321G | -1.06 | -0.327 | -0.201 | -0.861 | -1.36
10 | P321H | 0.752 | 0.344 | -0.295 | 0.847 | -0.469
11 | P321I | -0.035 | 0.104 | -0.603 | -0.533 | –
12 | P321K | -0.068 | 0.221 | 0.013 | -0.787 | -0.023
13 | P321L | -0.673 | -0.353 | -0.478 | -1.46 | -1.21
14 | P321M | 0.781 | 0.647 | 0.37 | 0.25 | –
15 | P321N | -0.328 | -0.401 | -0.117 | -0.605 | -0.302
16 | P321Q | 0.294 | 0.577 | -0.079 | 0.295 | 0.377
17 | P321R | 0.377 | -0.373 | -0.648 | -0.759 | -0.444
18 | P321S | 0.038 | 0.519 | 0.971 | 1.14 | –
19 | P321T | 0.446 | 0.653 | -0.32 | 0.443 | –
20 | P321V | -1.08 | -1.36 | -1.44 | -1.45 | -1.05
21 | P321W | 0.849 | 0.826 | 0.248 | -0.224 | -0.675

Row | Variant | cAMP reporter score ([1]; pH 5.5) | cAMP reporter score ([1]; pH 6, modulator: ogerin) | cAMP reporter score ([1]; pH 6.5, modulator: ogerin) | surface expression score [2] | cAMP reporter score ([1]; pH 6)
22 | P321Y | 0.547 | 0.718 | -0.019 | 0.36 | -1.04
23 | P321_L322del | 0.482 | 1.1 | 0.666 | 0.578 | 0.288
24 | P321_L322insGS | 0.417 | 0.73 | 1.04 | 0.392 | 0.849
25 | L322A | -0.382 | – | 0.677 | 0.288 | –
26 | L322C | -0.47 | -0.225 | 0.827 | 0.396 | 0.536
27 | L322D | 0.365 | -0.068 | 0.255 | 0.185 | -0.479
28 | L322E | 0.599 | 0.767 | -0.417 | 0.318 | -0.343
29 | L322F | -0.119 | 0.287 | -0.508 | -0.212 | -0.507
30 | L322G | -0.03 | -0.077 | -0.629 | 0.316 | 0.325
31 | L322H | 0.704 | 1.35 | 0.885 | 0.902 | -0.214
32 | L322I | -0.414 | 0.423 | -0.395 | 0.51 | 0.067
33 | L322K | 1.31 | 1.49 | 0.863 | – | 1.7
34 | L322M | 1.03 | 0.695 | 0.216 | 0.683 | 1.4
35 | L322N | 1.27 | 1.52 | 0.79 | 1.2 | 0.22
36 | L322P | 0.542 | -0.113 | 0.714 | 0.349 | 1.76
37 | L322Q | -0.075 | 1.37 | -0.202 | 0.491 | -0.593
38 | L322R | -0.213 | -0.28 | – | 0.003 | 2.26
39 | L322S | 1.33 | 0.768 | 0.147 | 0.261 | -0.882
40 | L322V | 0.601 | 0.959 | 0.524 | 0.738 | -0.111
41 | L322W | 0.656 | 0.734 | – | – | 1
42 | L322Y | 0.825 | 0.963 | 0.784 | 0.129 | 0.157

Row | Variant | cAMP reporter score ([1]; pH 5.5) | cAMP reporter score ([1]; pH 6, modulator: ogerin) | cAMP reporter score ([1]; pH 6.5, modulator: ogerin) | surface expression score [2] | cAMP reporter score ([1]; pH 6)
43 | L322_A324del | 0.426 | 0.596 | -0.91 | -0.024 | 0.269
44 | L322_G323insG | 0.04 | 0.064 | -0.166 | -0.39 | -0.424
45 | L322_G323insGS | 0.707 | 1.05 | 0.161 | 0.96 | 0.067
46 | G323A | -1.32 | -0.667 | -0.427 | -0.26 | –
47 | G323C | 0.082 | -0.329 | -0.499 | -0.309 | -0.928
48 | G323D | 0.564 | 0.121 | 0.624 | 0.584 | 0.325
49 | G323E | 0.67 | 1.03 | 1.55 | 1.59 | –
50 | G323F | -0.161 | -0.472 | 0.006 | – | -1.65
51 | G323H | 0.21 | 0.145 | -0.116 | -0.533 | 0.207
52 | G323I | -0.637 | -0.873 | -0.525 | -1.57 | -1.3
53 | G323K | 0.638 | 0.521 | -0.122 | -0.016 | 0.483
54 | G323L | -0.502 | -0.939 | -0.881 | -2.64 | -1.4
55 | G323M | 0.043 | -0.059 | -0.874 | -1.11 | -0.728
56 | G323N | 0.237 | 0.363 | 0.463 | -0.075 | 0.485
57 | G323P | 0.171 | 0.15 | -0.211 | 0.163 | -0.445
58 | G323Q | -0.094 | 0.355 | -0.405 | 0.481 | 0.047
59 | G323R | 0.908 | 1.62 | 0.725 | 0.617 | –
60 | G323S | 0.5 | 0.098 | 0.337 | -0.571 | 0.037
61 | G323T | 0.555 | -0.215 | 1.13 | -0.356 | 1.17
62 | G323V | -0.059 | -0.035 | -0.459 | -0.694 | -0.762
63 | G323W | 0.166 | -0.784 | -0.825 | -1.21 | –

Scores with a large standard error are left out. Two further conditions of the source, in which the scores hardly spread, are not listed. Read del as a deletion of the residues named and ins as an insertion between two positions. For some assays here: The data file names ogerin without a concentration.
